Assay results from a collection of fitness landscapes (doi:10.1126/science.1257360).
The other results are listed elsewhere or left out.

B1: PhoQ; a variant is named by its letters at X, in order, P23837 (parent)
chain: MKKLLRLFFPLSLRVRFLLATAAVVLVLSLAYGMVALIGYSVSFDKTTFRLLRGESNLFYTLAKWENNKLHVELPENIDKQSPTMTLIYDENGQLLWAQRDVPWLMKMIQPDWLKSNGFHEIEADVNDTSLLLSGDHSIQQQLQEVREDDDDAEMTHSVAVNVYPATSRMPKLTIVVVDTIPVELKSSYMVWSWFIYVLSANLLLVIPLLWVAAWWSLRPIEALAKEVRELEEHNRELLNPATTRELTSLVRNLNRLLKSERERYDKYRTTLTDLTHSLKTPLXXLQXXLRSLRSEKMSVSDAEPVMLEQISRISQQIGYYLHRASMRGGTLLSRELHPVAPLLDNLTSALNKVYQRKGVNISLDISPEISFVGEQNDFVEVMGNVLDNACKYCLEFVEISARQTDEHLYIVVEDDGPGIPLSKREVIFDRGQRVDTLRPGQGVGLAVAREITEQYEGKIVAGESMLGGARMEVIFGRQHSAPKDE

Variants of: B1
Test: enrichment ratio after two sorts for PhoP signalling (ratio (wild type AVST 3.29)); higher = more functional
Settings: with PhoP (E. coli)

Variant | enrichment ratio
MNHH | ≤ 0.25
WKEL | ≤ 0.25
FCND | ≤ 0.25
QAGE | ≤ 0.25
QMGR | ≤ 0.25
VASF | ≤ 0.25
SWNR | ≤ 0.25
CTHL | ≤ 0.25
AWEC | ≤ 0.25
GRFY | ≤ 0.25
AILK | 2.69
YSQE | ≤ 0.25
APLD | ≤ 0.25
RSLN | ≤ 0.25
WGGS | ≤ 0.25
VPLP | ≤ 0.25
IFEF | ≤ 0.25
IASN | ≤ 0.25
NAGN | ≤ 0.25
APMM | ≤ 0.25
WETP | ≤ 0.25
VHYL | ≤ 0.25
ELNY | ≤ 0.25
SHGY | 10.2
WKVK | ≤ 0.25
PRAG | ≤ 0.25

Variant | enrichment ratio
WRLR | 0.724
EDGW | ≤ 0.25
IVPS | ≤ 0.25
WPSR | ≤ 0.25
QLNH | ≤ 0.25
MMKF | ≤ 0.25
ITNM | ≤ 0.25
VQRN | ≤ 0.25
DWCL | ≤ 0.25
AQNI | ≤ 0.25
AMGD | 11.5
NSHG | ≤ 0.25
VIFM | ≤ 0.25
KNSW | ≤ 0.25
YICL | 3.21
DEND | ≤ 0.25
HKAD | ≤ 0.25
TYTY | 0.386
HFKV | ≤ 0.25
IDST | ≤ 0.25
IPLQ | ≤ 0.25
WFIQ | ≤ 0.25
ICGQ | ≤ 0.25
EAYW | ≤ 0.25
EYFE | ≤ 0.25
TKYG | ≤ 0.25

Variant | enrichment ratio
KSEI | ≤ 0.25
YFYY | ≤ 0.25
MYGW | ≤ 0.25
RRGP | ≤ 0.25
QHYH | ≤ 0.25
DFVP | ≤ 0.25
RMMT | ≤ 0.25
RGLW | ≤ 0.25
NALQ | ≤ 0.25
PIWG | ≤ 0.25
IYKY | ≤ 0.25
TPWY | ≤ 0.25
DPEY | ≤ 0.25
DTDT | ≤ 0.25
INSM | 0.298
LMYE | ≤ 0.25
SYNI | ≤ 0.25
VAIN | ≤ 0.25
LYPA | ≤ 0.25
WPNW | ≤ 0.25
PLDP | ≤ 0.25
LIHM | ≤ 0.25
QEPQ | ≤ 0.25
FVIL | ≤ 0.25
LFVL | ≤ 0.25
SFYD | ≤ 0.25

Variant | enrichment ratio
HHSK | ≤ 0.25
SHNN | 0.915
QLFN | ≤ 0.25
AEHK | ≤ 0.25
LHML | ≤ 0.25
VCLG | 3.83
QKSM | ≤ 0.25
PNTE | ≤ 0.25
KTNK | ≤ 0.25
DHSW | ≤ 0.25
GWYA | ≤ 0.25
GQFM | ≤ 0.25
FTWK | ≤ 0.25
DYDW | ≤ 0.25
VKQS | 2.04
WPGF | ≤ 0.25
TPHT | ≤ 0.25
FSAI | 4.16
SSGR | ≤ 0.25
PRNG | ≤ 0.25
AWRR | ≤ 0.25
EPCV | ≤ 0.25
IMNN | ≤ 0.25
QDSG | ≤ 0.25
EVMK | ≤ 0.25
GLVD | ≤ 0.25

Variant | enrichment ratio
LPAW | ≤ 0.25
SLRM | ≤ 0.25
TKCC | 13.1
HFWN | ≤ 0.25
LCNW | ≤ 0.25
YNYG | ≤ 0.25
HMLP | ≤ 0.25
DIQG | ≤ 0.25
NMDR | ≤ 0.25
PGVW | ≤ 0.25
TDDY | ≤ 0.25
LGYG | ≤ 0.25
MNQM | ≤ 0.25
ATKP | ≤ 0.25
LMPE | ≤ 0.25
HEYG | ≤ 0.25
ISGI | ≤ 0.25
FDYK | ≤ 0.25
YPAN | ≤ 0.25
MRLY | ≤ 0.25
EFGD | ≤ 0.25
VDGR | ≤ 0.25
SSQC | 1.27
AGRP | ≤ 0.25
YTGH | ≤ 0.25
YAYH | ≤ 0.25

Variant | enrichment ratio
HDGY | ≤ 0.25
RMYK | ≤ 0.25
LDGR | ≤ 0.25
DNWV | ≤ 0.25
PSTM | ≤ 0.25
PREA | ≤ 0.25
PNCS | ≤ 0.25
KSAW | ≤ 0.25
LSKS | ≤ 0.25
HGRT | ≤ 0.25
TPEC | ≤ 0.25
SWAF | ≤ 0.25
SNMR | 1.49
KNPG | ≤ 0.25
GQEI | ≤ 0.25
DVTM | ≤ 0.25
FVGS | 0.536
TVRI | ≤ 0.25
TVAN | 16.9
KVCL | ≤ 0.25
RFTG | ≤ 0.25
HENE | ≤ 0.25
GDAC | ≤ 0.25
